# According to the supplement of paper PMC3334620:
# Whole data set: some 33,000 sequences, median “E-score (-0.5 to 0.5)” near -0.04, cut for the highest 2% near 0.36. Some of the results follow.
# Target: T1, Hmlalpha2 (UniProt P0CY09)
# T1 sequence: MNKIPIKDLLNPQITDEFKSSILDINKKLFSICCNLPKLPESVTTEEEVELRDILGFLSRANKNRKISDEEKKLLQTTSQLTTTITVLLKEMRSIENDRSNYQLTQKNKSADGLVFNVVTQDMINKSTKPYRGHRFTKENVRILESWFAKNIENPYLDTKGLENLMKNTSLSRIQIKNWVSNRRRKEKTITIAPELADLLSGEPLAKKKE
# Assay: PBM E-score (8-mer binding enrichment) (E-score (-0.5 to 0.5)); higher = stronger / more preferred TF binding; most listed sequences are background and not binding sites
# Conditions: protein concentration: 200 nM; construct: GST-full length
# How it was run: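 Universal all-10-mer Agilent arrays, fresh or stripped once, were converted to double-stranded form by primer extension. GST-tagged yeast transcription factors from PURExpress in vitro transcription/translation, full-length or DNA-binding domain only, were applied at about 100-200 nM and detected with fluorescent anti-GST. After masliner normalisation, the Universal PBM Analysis Suite scored each ungapped eight-base word together with its reverse complement by E-score.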
row,Sequence,PBM E-score
1,CCCGAGCG,-0.121
2,AAGAACCT,-0.059
3,ATGGAATG,-0.161
4,AACGCACC,0.0799
5,ACTGTATC,0.00434
6,ATCTTCGC,-0.0673
7,GGAAATAA,0.0703
8,AAAAGGGG,-0.174
9,ATACAGTC,-0.194
10,GGGGTGTA,0.0612
11,CGCCATCA,-0.194
12,CGGGTTAA,0.188
13,CATGACGG,0.0417
14,AGCACCTA,-0.122
15,CCCCGGCA,-0.149
16,CATTACAG,0.326
17,AGGCATAG,-0.091
18,TCGTAGAA,0.115
19,ATAGGTGC,-0.0929
20,CGAGATAA,0.183
21,ATTGATTC,0.163
22,ATAGCGTG,0.14

row,Sequence,PBM E-score
1,ACACATGA,0.304
2,ACCGTCTG,-0.167
3,AGGATAGC,-0.0929
4,TCAACTGA,-0.0509
5,AAATGGTG,0.122
6,AACAGAAC,0.0502
7,TAGAAGGA,-0.237
8,AGGCTCTG,-0.253
9,CACCTTAC,0.0205
10,CCGGGCCG,-0.376
11,TATCCAGA,-0.0811
12,AGCCGACC,-0.197
13,CATTAGCC,-0.255
14,CCACTGAA,-0.0157
15,CGTTGAAA,0.0902
16,GCTCTCTA,-0.103
17,GCGTAAAA,0.4
18,ATGCGATG,0.0118
19,ACGAGATG,-0.04
20,TCACCAAA,0.0678
21,CTTTTAGC,-0.105
22,GGATGATA,-0.168

row,Sequence,PBM E-score
1,AACTCTAA,0.0318
2,CTGGCCAG,-0.123
3,CTCTAAAC,-0.0126
4,GCGAGCAA,-0.287
5,CGCAAATC,-0.171
6,CGCCGCAC,-0.0716
7,CGACTGTC,-0.179
8,AAGCCTGT,0.0273
9,CTGCCACA,-0.201
10,AGCACAAG,0.0394
11,ACGCTCAA,0.117
12,CGCGCCCG,-0.241
13,ATTTCCGC,-0.143
14,CGAGAGCA,-0.0155
15,AGATCCGA,-0.141
16,ATCCCCTA,-0.39
17,AGACCGGA,-0.241
18,AATTTCCC,-0.117
19,CTTGAAAA,0.0455
20,AACCGGTC,-0.185
21,GTTACCTA,0.0633
22,CGAAAACA,0.31

row,Sequence,PBM E-score
1,CAGGCTAA,-0.0418
2,CGGTACTA,-0.199
3,TGCATACA,0.3
4,CTACTAAG,-0.0656
5,GTAGTCTA,0.164
6,TAAATTGA,0.188
7,ATCCCGAA,-0.138
8,AATGTTCT,0.144
9,AGAGCATG,0.196
10,AGTAAACT,0.177
11,AAATAGGT,0.129
12,AGCGCGTA,0.388
13,ACCTGAAG,-0.192
14,GCGGACGA,-0.0131
15,AAGTCATG,0.17
16,AAATGAGA,0.0578
17,CACTGAGA,-0.132
18,ACACATTC,0.242
19,CGGCAGAG,-0.219
20,AATCGTTG,0.135
